Results on 23 molecules are retold here after patent US20210130346A1, “Bromodomain Inhibitors” (AbbVie Inc., priority 2017, published 2021).

This assay has as its target BRD4 (BDII_E352-M457) (Homo sapiens, UniProt O60885). Kind of assay: TR-FRET bromodomain binding assay, BRD4 second bromodomain (BDII). The settings on record: mean Ki; 4 nM His tagged BRD4 (BDII_E352-M457), 30 nM Alexa647 probe; Ki calculated from IC50, probe Kd and probe concentration. As for the experimental part: A time-resolved fluorescence resonance energy transfer (TR-FRET) assay was used to determine the affinities of compounds of the Examples listed in Table 1 for each bromodomain of BRD4. […] An Alexa647-labeled BET-inhibitor was used as the fluorescent probe in the assay.
Compound dilution series were prepared in DMSO via an approximately 3-fold serial dilution. Compound dilutions were added directly into white, low-volume assay plates (Perkin Elmer Proxiplate 384 Plus# 6008280) using a Labcyte Echo in conjunction with Labcyte Access and Thermo Multidrop CombinL robotics. Compounds were then suspended in eight microliters (μL) of assay buffer (20 mM Sodium Phosphate, pH 6.0, 50 mM NaCl, 1 mM Ethylenediaminetetraacetic acid disodium salt dihydrate, 0.01% Triton X-100, 1 mM DL-Dithiothreitol) containing His-tagged bromodomain, Europium-conjugated anti-His antibody (Invitrogen PV5596) and Alexa-647-conjugated probe.
After a one-hour equilibration at room temperature, TR-FRET ratios were determined using an Envision multilabel plate reader (Ex 340, Em 495/520).
TR-FRET data were normalized to the means of 24 no-compound controls (“high”) and 8 controls containing 1 μM un-labeled probe (“low”). Percent inhibition was plotted as a function of compound concentration and the data were fit with the 4 parameter logistic equation to obtain IC50s. Inhibition constants (Ki) were calculated from the IC50s, probe Kd and probe concentration.
In the case of `Cn1cc([C@@H]2C[C@@]23C(=O)N(Cc2ccc(N)cc2)c2ccccc23)c2cc(C(=O)NC3CC3)[nH]c2c1=O` (racemic) [Example 28, rac-4-{(1R,2S)-1′-[(4-aminophenyl)methyl]-2′oxo-1′,2′-dihydrospiro[cyclopropane-1,3′-indol]-2-yl}-N-cyclopropyl-6-methyl-7-oxo-6,7-dihydro-1H-pyrrolo [2,3-c]pyridine-2-carboxamide], the Ki is 15 nM. `CN1C(=O)[C@@]2(C[C@H]2c2cn(C)c(=O)c3[nH]c(C(=O)NC4CC4)cc23)c2cccc(Br)c21` (racemic) [Example 29, rac-4-[(1R,2S)-7′-bromo-1′-methyl-2′-oxo-1′,2′-dihydrospiro[cyclopropane-1,3′-indol]-2-yl]-N-cyclopropyl-6-methyl-7-oxo-6,7-dihydro-1H-pyrrolo[2,3-c]pyridine-2-carboxamide]: the inhibition constant Ki was 13.7 nM. With `CN1C(=O)[C@@]2(C[C@H]2c2cn(C)c(=O)c3[nH]ccc23)c2ccccc21` (racemic) [Example 30, rac-(1R,2S)-1′-methyl-2-(6-methyl-7-oxo-6,7-dihydro-1H-pyrrolo[2,3-c]pyridin-4-yl)spiro[cyclopropane-1,3′-indol]-2′(1H)-one] the figure was 174 nM; with `CN1C(=O)[C@@]2(C[C@H]2c2cn(C)c(=O)c3[nH]c(C4CC4)cc23)c2ccccc21` (racemic) [Example 31, rac-(1R,2S)-2-(2-cyclopropyl-6-methyl-7-oxo-6,7-dihydro-1H-pyrrolo[2,3-c]pyridin-4-yl)-1′-methylspiro[cyclopropane-1,3′-indol]-2′(1H)-one], 40.8 nM. As for `CN1C(=O)[C@@]2(C[C@H]2c2cn(C)c(=O)c3[nH]c(C4CN(C(=O)OC(C)(C)C)C4)cc23)c2ccccc21` (racemic) [Example 32, rac-tert-butyl 3-{6-methyl-4-[(1R,2S)-1′-methyl-2′oxo-1′,2′-dihydrospiro[cyclopropane-1,3′-indol]-2-yl]-7-oxo-6,7-dihydro-1H-pyrrolo [2,3-c]pyridin-2-yl}azetidine-1-carboxylate], the Ki was 91.2 nM.

For the molecule `CN1C(=O)[C@@]2(C[C@H]2c2cn(C)c(=O)c3[nH]c(-c4cnn(C)c4)cc23)c2ccccc21` (racemic) [Example 33, rac-(1R,2S)-1′-methyl-2-[6-methyl-2-(1-methyl-1H-pyrazol-4-yl)-7-oxo-6,7-dihydro-1H-pyrrolo[2,3-c]pyridin-4-yl]spiro[cyclopropane-1,3′-indol]-2′(1H)-one], the Ki is 3.31 nM. Consider `Cc1nn(C)cc1-c1cc2c([C@@H]3C[C@@]34C(=O)N(C)c3ccccc34)cn(C)c(=O)c2[nH]1` (racemic) [Example 36, rac-(1R,2S)-2-[2-(1,3-dimethyl-1H-pyrazol-4-yl)-6-methyl-7-oxo-6,7-dihydro-1H-pyrrolo[2,3-c]pyridin-4-yl]-1′-methylspiro[cyclopropane-1,3′-indol]-2′(1H)-one], for which the Ki is 283 nM. With `CN1C(=O)[C@@]2(C[C@H]2c2cn(C)c(=O)c3[nH]c(-c4cc[nH]n4)cc23)c2ccccc21` (racemic) [Example 37, rac-(1R,2S)-1′-methyl-2-[6-methyl-7-oxo-2-(1H-pyrazol-3-yl)-6,7-dihydro-1H-pyrrolo[2,3-c]pyridin-4-yl]spiro[cyclopropane-1,3′-indol]-2′(1H)-one], the Ki was 9.45 nM. As to `CN1C(=O)[C@@]2(C[C@@H]2c2cn(C)c(=O)c3[nH]c(-c4cc[nH]n4)cc23)c2ccccc21` (racemic) [Example 38, rac-(1R,2R)-1′-methyl-2-[6-methyl-7-oxo-2-(1H-pyrazol-3-yl)-6,7-dihydro-1H-pyrrolo[2,3-c]pyridin-4-yl]spiro[cyclopropane-1,3′-indol]-2′(1H)-one], the Ki is 896 nM. For the molecule `Cc1cc(-c2cc3c([C@@H]4C[C@@]45C(=O)N(C)c4ccccc45)cn(C)c(=O)c3[nH]2)on1` (racemic) [Example 39, rac-(1R,2S)-1′-methyl-2-[6-methyl-2-(3-methyl-1,2-oxazol-5-yl)-7-oxo-6,7-dihydro-1H-pyrrolo[2,3-c]pyridin-4-yl]spiro[cyclopropane-1,3′-indol]-2′(1H)-one], the Ki is 4.08 nM. With `Cc1cc(-c2cc3c([C@H]4C[C@@]45C(=O)N(C)c4ccccc45)cn(C)c(=O)c3[nH]2)on1` (racemic) [Example 40, rac-(1R,2R)-1′-methyl-2-[6-methyl-2-(3-methyl-1,2-oxazol-5-yl)-7-oxo-6,7-dihydro-1H-pyrrolo[2,3-c]pyridin-4-yl]spiro[cyclopropane-1,3′-indol]-2′(1H)-one] the figure was 450 nM. As for `CN1C(=O)[C@@]2(C[C@H]2c2cn(C)c(=O)c3[nH]c(-c4nccn4C)cc23)c2ccccc21` (racemic) [Example 41, rac-(1R,2S)-1′-methyl-2-[6-methyl-2-(1-methyl-1H-imidazol-2-yl)-7-oxo-6,7-dihydro-1H-pyrrolo[2,3-c]pyridin-4-yl]spiro[cyclopropane-1,3′-indol]-2′(1H)-one], the inhibition constant Ki is 18.2 nM. As to `CN1C(=O)[C@@]2(C[C@H]2c2cn(C)c(=O)c3[nH]c(-c4ncco4)cc23)c2ccccc21` (racemic) [Example 42, rac-(1R,2S)-1′-methyl-2-[6-methyl-2-(1,3-oxazol-2-yl)-7-oxo-6,7-dihydro-1H-pyrrolo[2,3-c]pyridin-4-yl]spiro[cyclopropane-1,3′-indol]-2′(1H)-one], the inhibition constant (Ki) is 120 nM. For the molecule `CN1C(=O)[C@@]2(C[C@H]2c2cn(C)c(=O)c3[nH]c(-c4cn(C)cn4)cc23)c2ccccc21` (racemic) [Example 43, rac-(1R,2S)-1′-methyl-2-[6-methyl-2-(1-methyl-1H-imidazol-4-yl)-7-oxo-6,7-dihydro-1H-pyrrolo[2,3-c]pyridin-4-yl]spiro[cyclopropane-1,3′-indol]-2′(1H)-one], the Ki is 7.63 nM.

In the case of `CN1C(=O)[C@@]2(C[C@H]2c2cn(C)c(=O)c3[nH]c(-c4cncn4C)cc23)c2ccccc21` (racemic) [Example 44, rac-(1R,2S)-1′-methyl-2-[6-methyl-2-(1-methyl-1H-imidazol-5-yl)-7-oxo-6,7-dihydro-1H-pyrrolo[2,3-c]pyridin-4-yl]spiro[cyclopropane-1,3′-indol]-2′(1H)-one], the Ki was 17.9 nM. With `CN1C(=O)[C@@]2(C[C@H]2c2cn(C)c(=O)c3[nH]c(-c4ccccn4)cc23)c2ccccc21` (racemic) [Example 45, rac-(1R,2S)-1′-methyl-2-[6-methyl-7-oxo-2-(pyridin-2-yl)-6,7-dihydro-1H-pyrrolo[2,3-c]pyridin-4-yl]spiro[cyclopropane-1,3′-indol]-2′(1H)-one], the inhibitory constant (Ki) is 27.6 nM. Turning to `Cc1ccnc(-c2cc3c([C@@H]4C[C@@]45C(=O)N(C)c4ccccc45)cn(C)c(=O)c3[nH]2)c1` (racemic) [Example 46, rac-(1R,2S)-1′-methyl-2-[6-methyl-2-(4-methylpyridin-2-yl)-7-oxo-6,7-dihydro-1H-pyrrolo[2,3-c]pyridin-4-yl]spiro[cyclopropane-1,3′-indol]-2′(1H)-one], the Ki is 2230 nM. With `CN1C(=O)[C@@]2(C[C@H]2c2cn(C)c(=O)c3[nH]c(-c4cccnc4)cc23)c2ccccc21` (racemic) [Example 47, rac-(1R,2S)-1′-methyl-2-[6-methyl-7-oxo-2-(pyridin-3-yl)-6,7-dihydro-1H-pyrrolo[2,3-c]pyridin-4-yl]spiro[cyclopropane-1,3′-indol]-2′(1H)-one] the figure was 8.16 nM. In the case of `CN1C(=O)[C@@]2(C[C@H]2c2cn(C)c(=O)c3[nH]c(-c4ccncc4)cc23)c2ccccc21` (racemic) [Example 50, rac-(1R,2S)-1′-methyl-2-[6-methyl-7-oxo-2-(pyridin-4-yl)-6,7-dihydro-1H-pyrrolo[2,3-c]pyridin-4-yl]spiro[cyclopropane-1,3′-indol]-2′(1H)-one], the inhibition constant Ki was 9.44 nM.

For `CN1C(=O)[C@@]2(C[C@H]2c2cn(C)c(=O)c3[nH]c(-c4ccnc(C(F)(F)F)c4)cc23)c2ccccc21` (racemic) [Example 51, rac-(1R,2S)-1′-methyl-2-{6-methyl-7-oxo-2-[2-(trifluoromethyl)pyridin-4-yl]-6,7-dihydro-1H-pyrrolo[2,3-c]pyridin-4-yl}spiro[cyclopropane-1,3′-indol]-2′(1H)-one], the Ki is 3.36 nM. With `CN1C(=O)[C@@]2(C[C@H]2c2cn(C)c(=O)c3[nH]c(-c4cncnc4)cc23)c2ccccc21` (racemic) [Example 54, rac-(1R,2S)-1′-methyl-2-[6-methyl-7-oxo-2-(pyrimidin-5-yl)-6,7-dihydro-1H-pyrrolo[2,3-c]pyridin-4-yl]spiro[cyclopropane-1,3′-indol]-2′(1H)-one] the figure was 9.68 nM; with `CN1C(=O)[C@@]2(C[C@H]2c2cn(C)c(=O)c3[nH]c(-c4ccncn4)cc23)c2ccccc21` (racemic) [Example 55, rac-(1R,2S)-1′-methyl-2-[6-methyl-7-oxo-2-(pyrimidin-4-yl)-6,7-dihydro-1H-pyrrolo[2,3-c]pyridin-4-yl]spiro[cyclopropane-1,3′-indol]-2′(1H)-one], 36.6 nM. `CN1C(=O)[C@@]2(C[C@H]2c2cn(C)c(=O)c3[nH]c(-c4ccnnc4)cc23)c2ccccc21` (racemic) [Example 56, rac-(1R,2S)-1′-methyl-2-[6-methyl-7-oxo-2-(pyridazin-4-yl)-6,7-dihydro-1H-pyrrolo[2,3-c]pyridin-4-yl]spiro[cyclopropane-1,3′-indol]-2′(1H)-one]: the Ki was 17.9 nM.

A word on the Ki: it is the equilibrium dissociation constant of an inhibitor or competing ligand from its target.
